{"source": "PubChem BioAssay AID686979", "about": "(National Center for Advancing Translational Sciences (NCATS), 2013)", "note": "Values joined by “and” are separate entries in the source; they are usually repeats but may differ in a detail not shown here. Identical values can stand only once. Among all 420,000 compounds or so, about 50,000 (12%) were called active. The inconclusive results got no clear call from the source; some entries with a clear call stand among them for comparison. Calls follow the shape of the dose curve; as a rule, active = well fitted inhibition curve with a large enough effect; inconclusive = small, poorly fitted or top-dose-only effect; inactive = flat fitted curve, though single readings scatter. Where the call is inconclusive, the potency comes from a doubtful curve fit. % is scaled to controls: 0 for no effect and ±100 for the full control effect; potency is read from the fitted curve at half-maximal effect; tags tell the direction and shape of the fitted curve."}
{"assay": "qHTS for Inhibitors of human tyrosyl-DNA phosphodiesterase 1 (TDP1): qHTS in cells in presence of CPT; also: nearly all actives have a fitted effect of over 55% in size", "settings": "chicken DT40 Tdp1-/-;hTDP1 cells + 20 nM CPT, ATP luminescence, 48 h; activity change, negative = growth inhibition: at 46.2 µM (top of the series) unless noted", "how_it_was_run": "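Chicken DT40 Tdp1-/- cells complemented with human TDP1, 400 cells/well, exposed to compounds plus 20 nM camptothecin for at least 48 h at 37 C; viability read as ATP content by CellTiter-Glo luminescence.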"}
{"compound": "O=S(=O)(c1ccc(F)cc1)c1nc(-c2ccco2)oc1Nc1ccccc1", "Potency": "inconclusive: 29.1 µM [inhibitor, single point]"}
{"compound": "Cc1ccc2cc(C#N)c(N3CCCN(C(=O)C4CCCO4)CC3)nc2c1C", "note": "(centres undefined)", "Potency": "inconclusive: 20.6 µM [inhibitor, single point]"}
{"compound": "CCOc1ccc(-n2c(N)c(-c3nc4ccccc4[nH]3)sc2=S)cc1", "activity change, negative = growth inhibition": "inconclusive: -35.2% [inhibitor]"}
{"compound": "O=C(/C=C/c1ccccc1)c1ccc2ccccc2c1", "Potency": "inconclusive: 29.1 µM [inhibitor, single point]"}
{"compound": "CCOc1cc(C=O)ccc1OS(=O)(=O)c1ccc(NC(C)=O)cc1", "Potency": "inconclusive: 29.1 µM [inhibitor, single point]"}
{"compound": "Cc1nnc(NC(=O)c2ccc(S(=O)(=O)N3CC(C)CC(C)C3)cc2)o1", "note": "(centres undefined)", "Potency": "inconclusive: 29.1 µM [inhibitor, single point]"}
{"compound": "CC(=O)Nc1ccccc1-c1nc2ccccc2n(CC(=O)c2ccc(Br)cc2)c1=O", "Potency": "inconclusive: 29.1 µM [inhibitor, single point]"}
{"compound": "CC(=O)N1c2ccc(S(=O)(=O)NCCc3ccc(Cl)cc3)cc2CC1C", "note": "(centres undefined)", "Potency": "inconclusive: 16.4 µM [inhibitor, single point]"}
{"compound": "CCN(Cc1ccccc1)S(=O)(=O)c1ccc(C(=O)N(CCCN(C)C)c2nc3c(F)cccc3s2)cc1", "Potency": "inconclusive: 29.1 µM [inhibitor, single point]"}
{"compound": "O=C(CSc1ccc2ccccc2n1)Nc1ccc(N2CCOCC2)cc1", "activity change, negative = growth inhibition": "inactive: 21.9%"}
{"compound": "Cc1ccc(CC(=O)N2CCC(c3nc4c(nnn4Cc4ccccc4)c(=O)[nH]3)CC2)cc1", "activity change, negative = growth inhibition": "inactive: -1.68%"}
{"compound": "Cc1cc(C)cc(NC2=C(c3ccccc3)C(=O)c3ccccc32)c1", "Potency": "active: 20.6 µM"}
{"compound": "C[C@@H]1CCCCO[C@H](CN(C)C(=O)Nc2cccc3ccccc23)[C@@H](C)CN([C@H](C)CO)C(=O)c2cc(N(C)C)ccc2O1", "Potency": "active: 14.6 µM"}
{"compound": "COc1cccc(NC(=O)N2CCc3nc(NCc4cccc(Oc5ccccc5)c4)ncc3C2)c1", "Potency": "active: 10.3 µM"}
{"compound": "CC(C(=O)c1ccc(-c2ccccc2)cc1)[n+]1cccc(Br)c1", "note": "(centres undefined)", "activity change, negative = growth inhibition": "inactive: -16.3%"}
{"compound": "O=C(CCN1C(=O)/C(=C/c2ccc3c(c2)OCO3)SC1=S)Nc1ccc(C(=O)O)cc1", "activity change, negative = growth inhibition": "inactive: -33.5%"}
{"compound": "CCc1c(C)nc(SCC(=O)N2CCCCC2CC)[nH]c1=O", "note": "(centres undefined)", "Potency": "inconclusive: 25.9 µM [inhibitor, single point]"}
{"compound": "CCOC(=O)C1CCCN(C(=O)Cn2ncc3c(C)n(Cc4ccccc4F)c(C)c3c2=O)C1", "note": "(centres undefined)", "Potency": "active: 25.9 µM"}
{"compound": "COc1ccccc1/C=N/NC(=O)COCC(=O)N/N=C/c1ccccc1OC", "activity change, negative = growth inhibition": "inactive: -1.73%"}
{"compound": "CCCCN(C)C1CCN(C(=S)Nc2ccc(OC)cc2)CC1", "activity change, negative = growth inhibition": "inactive: 13.1%"}
{"compound": "Cc1cccc(C(=O)Oc2ccccc2C2C[C@]3(C)CC(=O)NC3N2C(=O)c2cccc(C)c2)c1", "note": "(some centres undefined)", "activity change, negative = growth inhibition": "inconclusive: -31% [inhibitor]"}
{"compound": "COc1ccc(Cc2nc3ccc(C(=O)N4CCC[C@H]4CO)cc3o2)cc1", "Potency": "inconclusive: 0.731 µM [inhibitor, full curve, poor fit]"}
{"compound": "CC1(O)N(Cc2ccccc2)C(=O)OC12CCCCC2", "note": "(centres undefined)", "activity change, negative = growth inhibition": "inconclusive: -20.1% [inhibitor]"}
{"compound": "NS(=O)(=O)c1ccc(CCNc2ncnc3c2c(-c2ccccc2)cn3-c2ccc(F)cc2)cc1", "Potency": "inconclusive: 29.1 µM [inhibitor, single point]"}
{"compound": "COC(=O)C1=C(C)N(c2ccc(C)c(C)c2)/C(=C/c2cccs2)C1=O", "Potency": "active: 15.8 µM"}
{"compound": "COC(=O)CNC(c1ccccc1)c1cc(Br)ccc1NC(=O)c1ccccc1", "note": "(centres undefined)", "Potency": "active: 20.6 µM"}
{"compound": "O=C(O)C1CCCN(C(=O)c2cccc3ccccc23)C1", "note": "(centres undefined)", "activity change, negative = growth inhibition": "inactive: -12.2%"}
{"compound": "O=C(CCCNS(=O)(=O)c1cccs1)N1CCN(c2cccc(Cl)c2)CC1", "Potency": "inconclusive: 23.1 µM [inhibitor, partial curve]"}
{"compound": "CCOc1ccc(N2CC(C(=O)N/N=C/c3sccc3C)CC2=O)cc1", "note": "(centres undefined)", "activity change, negative = growth inhibition": "inactive: 9.79%"}
{"compound": "CCCCn1nnnc1C1(C)CCC(=O)N1Cc1cc(OC)ccc1OC", "note": "(centres undefined)", "activity change, negative = growth inhibition": "inactive: -7.55%"}
{"compound": "COc1cccc(-c2sc3ccc(OC)cc3c2-c2ccc(O)cc2)c1", "Potency": "inconclusive: 25.9 µM [inhibitor, single point]"}
{"compound": "CCOC(=O)[C@]12CCCC=C1N(CCC1=CCCCC1)C(=O)[C@H](CC(=O)N1CCN(C(=O)c3ccco3)CC1)C2", "Potency": "inconclusive: 16.4 µM [inhibitor, partial curve]"}
{"compound": "CCc1cccc(C)c1NC(=O)C1CCN(c2nn3c(=O)cc(C)nc3s2)CC1", "Potency": "inactive and inconclusive: 32.6 µM [inhibitor, partial curve, poor fit]"}
{"compound": "COc1ccc(-c2cc(C(F)(F)F)nc(SCC(=O)N3CCCCC3C)n2)cc1OC", "note": "(centres undefined)", "Potency": "inconclusive: 29.1 µM [inhibitor, single point]"}
{"compound": "CCn1c(SCC(=O)NNC(=O)c2ccc(C)cc2)nnc1C(C)C", "Potency": "inconclusive: 32.6 µM [inhibitor, partial curve, poor fit]"}
{"compound": "Cc1noc(C)c1S(=O)(=O)N1CCN(C(c2ccccc2)c2ccc(Cl)cc2)CC1", "note": "(centres undefined)", "Potency": "inconclusive: 29.1 µM [inhibitor, single point]"}
{"compound": "COc1ccc(-c2nnn(CC(=O)NCc3cccs3)n2)cc1OC", "Potency": "inconclusive: 16.4 µM [inhibitor, partial curve, poor fit]"}
{"compound": "CC(C(=O)O)n1cc(Cl)cn1", "note": "(centres undefined)", "Potency": "inconclusive: 29.1 µM [inhibitor, single point]"}
{"compound": "CC(C)C[C@H]1CN([C@@H](Cc2ccccc2)CN2CCC[C@H]2CN2C(=O)C(=O)NC[C@@H]2Cc2ccc(O)cc2)C(=O)C(=O)N1CC1CCCCC1", "Potency": "inconclusive: 25.9 µM [inhibitor, single point]"}
{"compound": "COc1cc2c(cc1OC)C(c1cccc([N+](=O)[O-])c1)=NCC2", "Potency": "inconclusive: 16.4 µM [inhibitor, partial curve, poor fit]"}
{"compound": "O=C(NC1CCCCC1)c1cccc2c(-c3ccc(F)c(F)c3)coc12", "Potency": "inconclusive: 20.6 µM [inhibitor, single point]"}
{"compound": "CCC1CCCCN1CCCNC(=O)c1ccc(/C=C2/Sc3ccccc3NC2=O)cc1", "note": "(centres undefined)", "Potency": "inconclusive: 4.11 µM [inhibitor, single point]"}
{"compound": "Cc1ccc(S(=O)(=O)Nc2ccc(N3CCOCC3)cc2)cc1", "activity change, negative = growth inhibition": "inactive: -16.1%"}
{"compound": "COc1ccccc1NS(=O)(=O)c1ccc(N2CCOCC2)c(NC(=O)c2ccco2)c1", "activity change, negative = growth inhibition": "inactive: -3.81%"}
{"compound": "O=C(/C=C/c1ccc(OCc2c(F)cccc2Cl)cc1)N1CCOCC1", "Potency": "inconclusive: 16.4 µM [inhibitor, single point]"}
{"compound": "CC1CC(C)(C)CC2(C1)NC(=O)N(CC(=O)N1CCN(S(=O)(=O)c3cccc(Cl)c3Cl)CC1)C2=O", "note": "(centres undefined)", "Potency": "active: 18.4 µM"}
{"compound": "Cc1onc(-c2c(F)cccc2Cl)c1C(=O)Nc1ccc(OC(C)C)cc1", "Potency": "inconclusive: 29.1 µM [inhibitor, single point]"}
{"compound": "O=c1[nH]nc(CNc2ccc(Cl)cc2Cl)c2ccccc12", "Potency": "inconclusive: 29.1 µM [inhibitor, single point]"}
{"compound": "Cc1ccc2oc(=O)c3cc(C(=O)Nc4ccccc4C(N)=O)sc3c2c1", "activity change, negative = growth inhibition": "inactive: 7.59%"}
{"compound": "O=C(N=C1SC2CS(=O)(=O)CC2N1CCc1ccccc1)C1CC1", "note": "(centres undefined)", "activity change, negative = growth inhibition": "inactive: -8.09%"}
{"compound": "Cc1ccc2oc(-c3cccc(NC(=O)COc4ccc(Cl)cc4C)c3C)nc2c1", "activity change, negative = growth inhibition": "inactive: -0.362%"}
{"compound": "COc1ccc(CN2CC(=O)N(c3ccc(Cl)cc3)C2=S)cc1OC", "Potency": "inconclusive: 29.1 µM [inhibitor, single point]"}
{"compound": "O=C1Nc2ccccc2Nc2ncccc21", "Potency": "inconclusive: 18.4 µM [inhibitor, single point]"}
{"compound": "CCOC(=O)c1cnc2c(ccc3ccccc32)c1Nc1ccc(OCC)cc1", "Potency": "inconclusive: 20.6 µM [inhibitor, single point]"}
{"compound": "CCCN1CCN(C(=O)c2nn(-c3ccc(OC)cc3)c(=O)c3c2c2ccccc2n3C)CC1", "Potency": "inconclusive: 14.6 µM [inhibitor, partial curve]"}
{"compound": "O=C(CCN1CCC2CCC(C2)C1)c1ccc(F)cc1", "note": "(centres undefined)", "Potency": "active: 3.26 µM"}
{"compound": "C=CCc1cccc(C=Nc2cc(Br)ccc2O)c1O", "Potency": "inconclusive: 20.6 µM [inhibitor, single point]"}
{"compound": "NC(=O)C1CCCN(C(=O)CN2C(=O)NC(c3ccccc3)(c3ccccc3)C2=O)C1", "note": "(centres undefined)", "activity change, negative = growth inhibition": "inactive: -5.36%"}
{"compound": "Cc1cccc(NC(=O)Nc2ccc(Br)cc2)n1", "Potency": "inconclusive: 32.6 µM [inhibitor, single point]"}
{"compound": "COc1ccc(CCNC(=O)c2cc3c(s2)-c2ccccc2OC3)cc1OC", "Potency": "inconclusive: 9.2 µM [inhibitor, single point]"}
{"compound": "O=C1CCCc2cc(S(=O)(=O)NCC3CCC(C(=O)NCc4ccccc4Cl)CC3)ccc2N1", "note": "(centres undefined)", "Potency": "inconclusive: 16.4 µM [inhibitor, single point]"}
{"compound": "CC(C)NC(=O)COc1ccc2c(c1)C(=O)CC(C)(C)O2", "activity change, negative = growth inhibition": "inactive: -1.53%"}
{"compound": "COc1cccc(C(C(=O)NC2CCCC2)N(C(=O)c2ccco2)c2cccc(C(C)=O)c2)c1OC", "note": "(centres undefined)", "Potency": "inconclusive: 6.51 µM [inhibitor, single point]"}
{"compound": "CC(=O)Oc1ccc(-c2csc(Nc3ccc(Cl)cn3)n2)cc1", "Potency": "inconclusive: 25.9 µM [inhibitor, single point]"}
{"compound": "C=CCNC(=O)c1onc(CSc2cccc(OC)c2)c1C(=O)NCC=C", "activity change, negative = growth inhibition": "inactive: -6.73%"}
{"compound": "CS(=O)c1ccc(-n2c(=O)n(Cc3ccccc3)c(=O)c3[nH]cnc32)cc1", "note": "(centres undefined)", "activity change, negative = growth inhibition": "inactive: -2.48%"}
{"compound": "N#Cc1c(NC(=S)NC(=O)c2ccccc2)sc2c1CCCCC2", "Potency": "inconclusive: 35.5 µM [inhibitor, single point]"}
{"compound": "CC1=NNC(=O)C1CC(=O)N/N=C/C(Br)=C/c1ccccc1", "note": "(centres undefined)", "Potency": "active: 20.6 µM"}
{"compound": "Cc1cccc(-c2nc(CS(=O)CC(=O)NC(C)CCc3ccccc3)c(C)o2)c1", "note": "(centres undefined)", "Potency": "inconclusive: 29.1 µM [inhibitor, single point]"}
